Experimental data: publication PMC3140617

Molecular target: T1, avidin tetramer (egg white) (not stated (egg white)), P02701
T1 chain: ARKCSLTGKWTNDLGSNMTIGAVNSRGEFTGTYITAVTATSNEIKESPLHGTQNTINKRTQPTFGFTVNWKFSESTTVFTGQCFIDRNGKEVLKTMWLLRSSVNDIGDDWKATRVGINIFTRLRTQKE
Assay: native MS
Conditions: remark: other sources report otherwise

stoichiometry N: 4
B1: avidin tetramer (egg white), P02701 25-152 (natural protein)
chain: T1 chain
